# Experimental data: PubChem BioAssay AID1745853 (National Center for Advancing Translational Sciences (NCATS), 2022)
# Values joined by “and” are separate entries in the source; they are usually repeats but may differ in a detail not shown here. Equal values may be shown once. This is one part of the list. These are further read-outs of the screen, such as a control signal, another cell line or another target. No call is given for them.
# Tests used:
# Assay in all cases: Primary Screen for Target Class Profiling of Small Molecule Inhibitors of Methyltransferases
# [1] = molecular target: Glycine N-methyltransferase (Homo sapiens) (UniProt Q14749); settings: purified enzyme, MTase-Glo SAH luminescence; measured here: GNMT inhibition; at 40 µM; stronger effect = lower value
# How it was run: (§1)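 Each enzyme was reacted with SAM and its substrate, with compounds tested once at 40 uM; SAH formed was read by MTase-Glo luminescence.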
# [2] = molecular target: Guanidinoacetate N-methyltransferase (Homo sapiens) (UniProt Q14353); settings: purified enzyme, MTase-Glo SAH luminescence; measured here: GAMT inhibition; at 40 µM; stronger effect = lower value
# How it was run: as §1
# [3] = molecular target: Histamine N-methyltransferase (Homo sapiens) (UniProt P50135); settings: purified enzyme, MTase-Glo SAH luminescence; measured here: HNMT inhibition; at 40 µM; stronger effect = lower value
# How it was run: as §1
# [4] = molecular target: Nicotinamide N-methyltransferase (Homo sapiens) (UniProt P40261); settings: purified enzyme, MTase-Glo SAH luminescence; measured here: NNMT inhibition; at 40 µM; stronger effect = lower value
# How it was run: as §1
# [5] = molecular target: Phenylethanolamine N-methyltransferase (Homo sapiens) (UniProt P11086); settings: purified enzyme, MTase-Glo SAH luminescence; measured here: PNMT inhibition; at 40 µM; stronger effect = lower value
# How it was run: as §1
# On the % scale 0 is the no-effect control and ±100 the full control effect.
SMILES,"activity change, negative = inhibition [1]","activity change, negative = inhibition [2]","activity change, negative = inhibition [3]","activity change, negative = inhibition [4]","activity change, negative = inhibition [5]"
CC(C)NC(=O)N1Cc2ccccc2-n2cccc2C1c1cccc(Cl)c1 (stereo not given),11.5%,0.254%,6.04%,1.23%,7.43%
CCC1c2cccn2-c2ccccc2CN1C(=O)Nc1ccccc1C (stereo not given),-3.23%,2.67%,0.647%,-3.77%,2.53%
COCCOCC(=O)N1CCC2(CC1)c1nccn1-c1ccccc1CN2CC(C)C,-2.08%,-1.05%,-4.63%,-5.99%,0.857%
CCC1c2cccn2-c2ccccc2CN1C(=O)Nc1ccc(OC)cc1 (stereo not given),5.54%,0.508%,5.43%,2.86%,9.87%
CCOc1ccc(C2c3cccn3-c3ccccc3CN2C(=O)Nc2ccc(OC)cc2)cc1 (stereo not given),-2.47%,0%,5.01%,3.79%,3.92%
COC(=O)c1ccc(NC(=O)N2Cc3ccccc3-n3cccc3C2c2cccs2)cc1 (stereo not given),9.25%,0%,1.38%,-0.374%,5.66%
O=C(Nc1ccc(F)c(Cl)c1)N1Cc2ccccc2-n2cccc2C1c1ccccc1 (stereo not given),2.7%,0%,-3.99%,-0.496%,2.98%
Cc1c(Cl)cccc1NC(=O)N1Cc2ccccc2-n2cccc2C1c1ccccc1 (stereo not given),10.2%,0%,8.41%,5.13%,8.09%
C[C@]12CC[C@H](OC3OC(CO)C(O)C(O)C3OC3OC(CO)C(O)C(O)C3O)C[C@@H]1CC[C@@H]1C2CC[C@]2(C)[C@@H](C3=CC(=O)OC3)CC[C@]12O (stereo not given in full),-3.77%,-17.2%,4.16%,-26.9%,-1.96%
CN1CCC(NCC2(CO)C[C@@H](O)[C@@H](O)C2)CC1 (stereo not given in full),-1.4%,-0.909%,-3.04%,-3.17%,0.421%
CN1CCN(c2nc3ccccc3nc2Cl)CC1,0.58%,0.191%,10.9%,-7.37%,6.96%
CCOC(=O)CNC(=O)N1Cc2ccccc2-n2cccc2C1c1ccc(SC)cc1 (stereo not given),-1.84%,1.71%,0.791%,-3.96%,3.21%
CCCCCOc1cc2c(cc1-c1cc(/C=C/C(=O)O)ccc1O)C(C)(C)CCC2(C)C,-10.5%,-18.9%,7%,-63.2%,2.04%
Cn1cnc(S(=O)(=O)N2[C@H]3CC[C@@H]2c2cnc(-c4ccccc4)nc2C3)c1,-3.55%,-6.25%,-1.93%,-4.27%,1.3%
CC(N)c1cccc(Cl)c1Cl (stereo not given),-8.45%,4.62%,-44.4%,-6.16%,-98.7%
O[C@@H]1CNC2Cc3c([nH]c4ccccc34)C1C2 (stereo not given in full),-6.96%,-2.27%,-3.75%,-1.24%,-12.5%
CC[C@H]1C2CC3[C@@H]4N(C)c5ccccc5[C@]45C[C@@H]([C@H]2[C@H]5O)N3[C@H]1O,2.56%,3.86%,7.26%,-12.1%,3.41%
Cc1ccc(NC(=O)N2Cc3ccccc3-n3cccc3C2c2ccccc2Cl)cc1C (stereo not given),12.2%,0%,5.29%,0.751%,6.14%
O=C(NCc1ccc(F)cc1)N1Cc2ccccc2-n2cccc2C1c1cccc(Cl)c1 (stereo not given),9.79%,4.62%,1.07%,-3.19%,1.53%
C[C@]12CC[C@@H](O)C[C@H]1CC[C@@H]1[C@@H]2CC[C@]2(C)C(=O)CC[C@@H]12,6.07%,11%,6.8%,-9.2%,0.803%

SMILES,"activity change, negative = inhibition [1]","activity change, negative = inhibition [2]","activity change, negative = inhibition [3]","activity change, negative = inhibition [4]","activity change, negative = inhibition [5]"
CCOCCCNC(=O)N1Cc2ccccc2-n2cccc2C1c1ccc(Cl)cc1 (stereo not given),-2.04%,4.07%,7.71%,-0.56%,9.1%
CCC1(N2CCN(C(=O)COc3ccc(Cl)cc3C)CC2)CCN(C(=O)NC)C1 (stereo not given),-5.62%,-0.224%,-3.94%,-6.95%,10.9%
CCC(C)C1NC(=O)C(C(C)=O)=C1O (stereo not given),0%,-7.5%,-4.01%,-20.4%,-7.6%
COc1ccc(NC(=O)N2Cc3ccccc3-n3cccc3C2c2ccc(C)cc2)c(OC)c1 (stereo not given),8.94%,5.91%,8.52%,1.43%,5.46%
CC(=O)NCCc1c[nH]c2ccccc12,-0.915% and 0.677%,0.938% and 8.46%,5.66% and 8.3%,-14.5% and -6.87%,3.62% and 0.552%
C[C@@H]1[C@H](O)[C@@H](C)/C=C/C=C/CC/C=C/C=C/C=C/C=C/[C@H](O[C@H]2O[C@@H](C)[C@H](O)[C@@H](N)[C@H]2O)C[C@@H]2O[C@](O)(C[C@@H](O)[C@H](O)CC[C@@H](O)C[C@@H](O)C[C@@H](O)CC(=O)O[C@H]1C)C[C@H](O)[C@H]2C(=O)O,-2.99%,-8.5%,6.72%,-12%,-0.424%
COc1ccc(NC(=O)N2Cc3ccccc3-n3cccc3C2C(C)C)cc1OC (stereo not given),-2.16%,0.369%,3.81%,7.43%,6%
COc1ccc(C2c3cccn3-c3ccccc3CN2C(=O)Nc2ccc(C)cc2C)cc1 (stereo not given),7.79%,1.22%,-1.4%,-4.61%,0.118%
CCC1C2CC3C4N(C)c5ccccc5C45CC(C2C5O)N3C1O (stereo not given),3.08%,4.46%,8.72%,-10.1%,3.91%
O=C(O)C1=NOC2CN(Cc3cncs3)CC12 (stereo not given),-8.74%,-10.5%,-5.24%,-16%,-11.3%
Nc1ccc(CCN2CCN(c3cccc(C(F)(F)F)c3)CC2)cc1,-2.62%,10.6%,8.83%,-11.8%,-2.25%
CCOC(=O)Cc1ccc(NC(=O)N2Cc3ccccc3-n3cccc3C2c2ccc(CC)cc2)cc1 (stereo not given),11.7%,3.5%,7.89%,8.75%,10.2%
COc1ccc(-c2cc3c(cn2)CN(C)CCN3)cn1,-10.7%,-6.16%,-73.3%,-16.4%,-4.22%
CC1=C2C[C@H]3[C@@H](CC=C4C[C@@H](O)CC[C@@]43C)[C@@H]2CC[C@]12O[C@@H]1C[C@H](C)CN[C@H]1[C@H]2C,4.29%,8.6%,6.39%,-7.84%,0.505%
CCc1ccc(C2c3cccn3-c3ccccc3CN2C(=O)NCCC(C)C)cc1 (stereo not given),5.48%,0%,1.18%,-2.31%,3.9%
NC(C(=O)O)c1cc(=O)[nH]o1 (stereo not given),2.21%,6.88%,6.98%,-8.01%,-5.87%
CCC1c2cccn2-c2ccccc2CN1C(=O)Nc1cc(Cl)c(OC)cc1OC (stereo not given),0.032%,0%,-0.468%,0.826%,5.6%
COc1ccc2c(C(=O)c3ccc(Cl)cc3)c(C)n(CC(=O)O)c2c1,-1.99%,4.52%,10.1%,-11.2%,3.35%
Cc1ccc(C)c(NC(=O)N2Cc3ccccc3-n3cccc3C2c2cccc(Cl)c2)c1 (stereo not given),13.7%,0%,6.87%,5.98%,4.83%
